The record followed here is paper PMC6345720.

These are yes or no findings as the source states them, for the method shown. In cells and extracts the contact can be indirect. Some binding calls cover weakened binding; strength is not graded here. Where a sequence is shown, tags or fusion partners need not be part of it.

Experiment [1] addresses T1, PLDα2-YFP-HA (Arabidopsis thaliana) (UniProt Q9SSQ9).
T1 sequence: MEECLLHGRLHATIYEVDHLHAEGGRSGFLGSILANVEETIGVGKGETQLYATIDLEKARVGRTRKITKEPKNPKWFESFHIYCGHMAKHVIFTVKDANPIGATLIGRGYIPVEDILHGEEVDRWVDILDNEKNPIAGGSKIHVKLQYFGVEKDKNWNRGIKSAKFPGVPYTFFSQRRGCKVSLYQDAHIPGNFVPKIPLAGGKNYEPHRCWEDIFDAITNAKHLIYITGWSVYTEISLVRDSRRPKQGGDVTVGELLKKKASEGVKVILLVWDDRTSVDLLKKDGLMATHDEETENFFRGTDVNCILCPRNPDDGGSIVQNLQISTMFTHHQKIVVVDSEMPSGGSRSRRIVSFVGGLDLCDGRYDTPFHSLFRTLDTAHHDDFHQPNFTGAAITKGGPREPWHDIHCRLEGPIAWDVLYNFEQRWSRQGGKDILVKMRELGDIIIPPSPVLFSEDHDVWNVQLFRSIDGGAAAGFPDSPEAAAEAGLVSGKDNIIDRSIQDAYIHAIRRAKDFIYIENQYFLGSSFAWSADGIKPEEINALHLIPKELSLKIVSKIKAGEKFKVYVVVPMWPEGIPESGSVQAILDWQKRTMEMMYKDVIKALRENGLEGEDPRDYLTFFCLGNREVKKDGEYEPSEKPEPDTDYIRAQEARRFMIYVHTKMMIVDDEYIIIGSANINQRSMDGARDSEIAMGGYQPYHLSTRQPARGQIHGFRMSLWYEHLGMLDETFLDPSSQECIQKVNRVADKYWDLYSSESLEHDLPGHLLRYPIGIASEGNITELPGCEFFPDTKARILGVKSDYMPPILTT
Briefly: co-IP; PLD-YFP-HA and RPM1-Myc co-expressed in N. benthamiana leaves; microsomal fractions solubilised in 40 mM Tris-HCl pH 7.5, 150 mM NaCl, 1 mM DTT, 5 mM EDTA, 1% Triton X-100; PLD-YFP-HA precipitated with anti-GFP agarose beads at 4°C for 3 h; RPM1-Myc detected by blot.

In experiment [2] the target is T2, PLDβ1-YFP-HA (Arabidopsis thaliana) (UniProt P93733).
T2 sequence: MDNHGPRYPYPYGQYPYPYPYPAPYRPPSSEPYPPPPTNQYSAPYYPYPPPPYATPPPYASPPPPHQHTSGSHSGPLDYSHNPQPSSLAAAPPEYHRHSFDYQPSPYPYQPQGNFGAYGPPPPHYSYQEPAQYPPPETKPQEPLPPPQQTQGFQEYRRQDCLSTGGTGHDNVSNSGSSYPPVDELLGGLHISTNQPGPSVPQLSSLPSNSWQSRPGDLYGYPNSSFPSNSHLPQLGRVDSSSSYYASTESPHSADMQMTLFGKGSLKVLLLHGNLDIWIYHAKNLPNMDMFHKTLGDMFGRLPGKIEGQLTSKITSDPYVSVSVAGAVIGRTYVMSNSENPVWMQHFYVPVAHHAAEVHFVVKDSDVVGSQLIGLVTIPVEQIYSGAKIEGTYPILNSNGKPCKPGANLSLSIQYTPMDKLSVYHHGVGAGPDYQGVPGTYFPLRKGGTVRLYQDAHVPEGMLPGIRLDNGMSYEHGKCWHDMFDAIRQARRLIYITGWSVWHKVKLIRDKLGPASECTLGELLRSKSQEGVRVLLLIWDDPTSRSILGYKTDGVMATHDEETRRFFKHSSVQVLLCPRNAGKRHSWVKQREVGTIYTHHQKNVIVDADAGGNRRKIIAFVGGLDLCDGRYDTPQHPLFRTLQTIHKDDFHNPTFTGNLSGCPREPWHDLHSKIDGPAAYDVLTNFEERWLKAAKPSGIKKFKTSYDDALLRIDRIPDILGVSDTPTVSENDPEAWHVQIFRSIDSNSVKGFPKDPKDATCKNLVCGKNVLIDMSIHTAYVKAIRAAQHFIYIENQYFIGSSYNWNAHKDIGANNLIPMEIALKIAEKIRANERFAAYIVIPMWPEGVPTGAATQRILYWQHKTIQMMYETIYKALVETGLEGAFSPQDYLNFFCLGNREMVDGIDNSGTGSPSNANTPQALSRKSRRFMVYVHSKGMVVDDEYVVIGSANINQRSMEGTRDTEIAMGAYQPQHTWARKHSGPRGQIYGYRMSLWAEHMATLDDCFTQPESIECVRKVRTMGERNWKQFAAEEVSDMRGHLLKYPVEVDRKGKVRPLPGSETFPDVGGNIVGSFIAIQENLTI
Described as above.

B1: RPM1-Myc (35S::RPM1-Myc) (receptor, UniProt Q39214 1-926)
chain: MASATVDFGIGRILSVLENETLLLSGVHGEIDKMKKELLIMKSFLEDTHKHGGNGSTTTTTQLFQTFVANTRDLAYQIEDILDEFGYHIHGYRSCAKIWRAFHFPRYMWARHSIAQKLGMVNVMIQSISDSMKRYYHSENYQAALLPPIDDGDAKWVNNISESSLFFSENSLVGIDAPKGKLIGRLLSPEPQRIVVAVVGMGGSGKTTLSANIFKSQSVRRHFESYAWVTISKSYVIEDVFRTMIKEFYKEADTQIPAELYSLGYRELVEKLVEYLQSKRYIVVLDDVWTTGLWREISIALPDGIYGSRVMMTTRDMNVASFPYGIGSTKHEIELLKEDEAWVLFSNKAFPASLEQCRTQNLEPIARKLVERCQGLPLAIASLGSMMSTKKFESEWKKVYSTLNWELNNNHELKIVRSIMFLSFNDLPYPLKRCFLYCSLFPVNYRMKRKRLIRMWMAQRFVEPIRGVKAEEVADSYLNELVYRNMLQVILWNPFGRPKAFKMHDVIWEIALSVSKLERFCDVYNDDSDGDDAAETMENYGSRHLCIQKEMTPDSIRATNLHSLLVCSSAKHKMELLPSLNLLRALDLEDSSISKLPDCLVTMFNLKYLNLSKTQVKELPKNFHKLVNLETLNTKHSKIEELPLGMWKLKKLRYLITFRRNEGHDSNWNYVLGTRVVPKIWQLKDLQVMDCFNAEDELIKNLGCMTQLTRISLVMVRREHGRDLCDSLNKIKRIRFLSLTSIDEEEPLEIDDLIATASIEKLFLAGKLERVPSWFNTLQNLTYLGLRGSQLQENAILSIQTLPRLVWLSFYNAYMGPRLRFAQGFQNLKILEIVQMKHLTEVVIEDGAMFELQKLYVRACRGLEYVPRGIENLINLQELHLIHVSNQLVERIRGEGSVDRSRVKHIPAIKHYFRTDNGSFYVSLSS
As for B1, the binding result in experiment [1] is reported as “binds”; in experiment [2] it was “no binding”.
